# Laboratory results taken from the RNAGym collection of RNA variant scans (doi:10.7554/elife.90254).
# Read counts are not given, so values of variants with three or more changes are uncertain.
# B1: OR4K15 (parent)
# chain: GUUAACGGUCAUAGGCCAUGGAAACUAGGAGCACCAUUUCGCUGCCAGUGAAGAAAUGAACAAAGAAAAUCUGGGCCAGGCAGGCAUCAAAAGAAAUAGUCUUGCGCUCAACCAGAAAGUCUGUAAUCAUUUUAAGGGUA
# Variants of: B1
# Test: self-cleavage, relative activity (ratio to wild type); higher = more cleavage; in vitro, sequencing; the parent is a self-cleaving ribozyme
row,Variant,self-cleavage
1,GUUAACGGUCAUAGGCCAUGGGAGCUGGGAGCACCAUUUCGCUGCCAGUGAAGAAAUGAACAACGAAAAUCUGGGCCAGGCAGGCAUCAGAAGAAAUAGUCUUGCGCUCAACCAGAAAGUCUGUAAUCAUUUUAAGGGUA,1.18
2,GUUAACGGUCAUAGGCCAUGGGAACUAGGAGCACCUUUUCGCUGCCAUUGAAGAAAUGAACAAAGAAAAUCUGGGCCAGGCAGGCAUCAAAAGAAAUAGUCUUGCGCUCAACCAGAAAGUCUGUAAUCAUUUUAAGGGUA,1.15
3,GUUAACGGUCAUAGGCCAUGGGAACUGGGAGCACCAUUUCGCUGCCAGUGAAGAAACGAACAGAGAAAAUCUGGGCCAGGCAGGCAUCAAAAGAAAUAGUCUUGCGCCCAACCAGAAAGUCUGUAAUCAUUUUAAGGGUA,0
4,GUUAACGGUCAUAGGCCAUGGGAUCUAGGAGCACCAUUUCGCUGCCAGUGAAGAAGUGAACAAAGAAAAUCUGGGCCAGGCAGGCAUCAAAAGAAAUAGUCUUGCGCUCAACCAGAAAGUCUGUAAUCAUUUUAAGGGUA,1.54
5,GUUAACGGUCAUAGGCCAUGGGAACUAGGAGCACCAUUUCGCUGCCGGUGAAGAAAUGAACAAAGAAAAUCCGGGCCAGGCAGGCAUCAAAGGAAAUAGUCUUGCGCUCAACCAGAAAGUCUGUAAUCAUUUUAGGGGUA,0.1
6,GUUAACGGUCAUAGGCCAUGGGAACUAGGAGCACCUUUUCGCUGCCAGUGAAGAAAUGAACAAAGAAAAUCUGGGCCAGGCAGGCAUCAAAAGAGAUAGUCUUGCGCUCAACCAGAAAGUCUGUAAUCAUUUUAAGGGUA,1.2
7,GUUAACGGUCAUAGGCCAUGGGAACUAGGUGCACCAUUUCGCUGCCAGUGAAGAAAUGAACAAAGAAAAUCUGGGCCAGGCAGGCAUCAAAAGAAUUAGUCUUGCGCUCAACCAGAAAGUCUGCAAUCAUUUUAAGGGUA,0.62
8,GUUAACGGUCAUAGGCCAUGGGAACUAGGAGCGCCAUUUCGCUGCCAGUGAAGAAAUGAACAAAGAAUAUCUGGGCCAGGCAGGCAUCAAAAGAAAUAGUCUUGCGCUCAACCAGAAAGUCUGUAAUCAUUUUAAGGGUA,1.3
9,GUUAACGGUCAUAGGCCAUGGGAACUAGGAGCACCGUUCCGCUGCCAGUGAAGAAAUGAACGAAGAAAAUCUGGGCCAGGCAGGCAUCAAAAGUAAUAGUCAUGCGCUCAACCAGAAAGUCUGUAAUCAUUUUAAGGGUA,0.85
10,GUUAACGGUCAUAGGCCAUGGGAACUAGGAGCACCAUUUCGCUGCCUGUGAAGAAAUGAACAAAGAAAAUCUGGGCCAGGCAGGCAUCAAAAGAAAUAGUCUUGCGCUCAACUAGAAAGUCUGUAAUCAUUUUAGGGGUA,0.04
11,GUUAACGGUCAUAGGCCAUGGGAACUAGGGGCACCAUUUCGCUGCCAGUGAGGAAACGAACAAAGAAAAACUGGGCCAGGCGGGCAUCAAUAGAAAUAGUCUUGCGCUCAACCAGAAAGUCUGUAAUCAUUUUAAGGGUA,0.2
12,GUUAACGGUCAUAGGCCAUGGGAACUAGGGGCACCAUUUCGCUGCCUGUGAAGAAAUGAACAAAGAAAAUCUGGGCCAGGCAGGCAUCAAAAGAAAUAGUCUUGCGCUCAUCCAGAAAGUCUGUAAUCAUCUUAAGGGUA,0.03
13,GUUAACGGUCAUAGGCCAUGGGAACUGGGAGCCCCAUUUCGCUGCCAGUGAAGAAAUGAACAAAGAAAAUCUGGGCCAGGCAGGCAUCAAAAGAAAUAGUCUUGCGCUCAACCAGAAAGUCUGUAAUCAUCUUAAGGGUA,2.19
14,GUUAACGGUCAUAGGCCAUGGGAACUAGGUGCACCAUUUCGCUGCCAGUGAAGAAAAGAACAAAGAAAAUCUGGGCCAGGCAGGCGUCAAAAGAAAUAGUCUUGCGCUCAACCAGAAAGUCUGUAAUCAUUUUAAGGGUA,0.3
15,GUUAACGGUCAUAGGCCAUGGGAACUAGGAGCACCAUUUCGCUGCCGGUGGAGAAAUGAACAAAGAAAAUCUGGGCCAGGCAGGCAUCAAGAGAAAUAGUCUUGCGCUCAUCCAGAAAGUCUGUAAUCAUUUUAAGGGUA,0.09
16,GUUAACGGUCAUAGGCCAUGGGAACUAGGGGCACCAUUUCGCUGCCAGUGAAGAAAUGAACAAAGAAAAUCUGGGCCAGGCAGGCAUCAAAAGAAAUGGUCUUGCGCUCAACCAGAAAGUCUGUAAUCAUUUUAAGGGUA,0.67
17,GUUAACGGUCAUAGGCCAUGGGAACUAGGGGCACCAUUUCGCUGCCAGUGAAGAAAUGAACAAAGAAAAUCUGGGCCAGGCAGGCAUCAAAAGAAAUAGUCCUGCGCUCAACCAGAAAGUCUGUAAUCAUUUUAAGGGUG,1.58
18,GUUAACGGUCAUAGGCCAUGGGAACUAGGGGCACCAUUUCGCUGCCAGUGAAGAAAUGAACGAAGAAAAUCUGGGCCAGGCAGGCAUCAAAAGAAAUAGUCUUGCGCUCAACCAGAAAGUCUGUAAUCAUUUUAAGGGUA,1.85
19,GUUAACGGUCAUAGGCCAUGGGAACUAGGAGCACCAUUUCGCUGCCUGUGAAGAAAUGAACAAAGAAAAUCUGGGCCAGGCAGGCAUCAAAAGAGAUAGUCUUGCGCUCAACCAGAAAGUCUGUAAUCAUUUUAAGGGUA,1.02
20,GUUAACGGUCAUAGGCCAUGGGAACUAGGGGCACCACUUCGCUGCCAGUGAAGAAAUGAACAAAGAAAAUCUGGGCCAGGCAGGCAUCAAAAGAAAUAGUCUUGCGCUCAACCAGAAUGUCUGUAAUCAUUUUAAGGGUG,0.1
21,GUUAACGGUCAUAGGCCAUGGGAACUAGGGGCACCAUUUCGCUGCCAGUGAAGGAAUGAACAAAGAAAAUCUGGGCCUGGCAGGCAUCAAAAGAAAUAGUCUUGCGCUCAACCAGAAAGUUUGUAAUCAUUUUAAGGGUA,0.51

row,Variant,self-cleavage
1,GUUAACGGUCAUAGGCCAUGGGAGCUAGGAGCACCAUUUCGCUGCCAGUGAAGAAAUGAACAAAGAAAAUCUGGGCCAGGCAGGCGUCAAAAGAAAUAGUCUUGCGCUCAACCAGAAAGUCUGUAAUCAUUUUAAGGGUA,1.23
2,GUUAACGGUCAUAGGCCAUGGGAACUAGGGGCACCAUUUCGCUGCCAGUGAAGAAACGAACAAAGAAAAUCUGGGCCAGGCAGGCAUCAAAAGAAAUAGUCUUGCGCUCAACCAGAAAGUCUGUAAUCAUUUUAAGGGUA,0.61
3,GUUAACGGUCAUAGGCCAUGGGAACUUGGAGCACCAUUUCGCUGCCAGUGAAGAAAUGAACAAAGAAAAUCUGGGCCAGGCAGGCAUCAAAAGAAAUAGUCUUGCGCUCAACCAGAAAGUCUGUACUCAUUUUAAGGGUA,0.42
4,GUUAACGGUCAUAGGCCAUGGGAACUGGGAGCACCAUUUCGCUGCCAGUGAAGAAAUGAACAAAGAAAAUCUGGGCCAGGCAGGCAUCAAAAGAAAUAGUCUUGCGCUCAACCAGAAGGUCUGUAAUCAUUUUAGGGGUA,0.37
5,GUUAACGGUCAUAGGCCAUGGGAGCUAGGAGCACCAUUUCGCUGCCAGUGAAGAAAUGAACAAAGAAAAUCUGGGCCAGGCAGGCAUCAAAAGAAUUAGCCUUGCGCUCAACCAGAAUGUCUGUAAUCAUUUUAAGGGUA,0.17
6,GUUAACGGUCAUAGGCCAUGGGAGCUAGGAGCACCAUUUCGCUGCCAGUGAGGAAAUGAACAAAGAAAAUCUGGGCCAGGCAGGCAUCAAAAGAAAUAGUCUUGCGCUCAACCAGAAAGUCUGUAAUCAUUUUAAGGGAA,1.24
7,GUUAACGGUCAUAGGCCAUGGGAACUAGGAGCACCAUUUCGCUGCCGGUGAAGAAAUGAGCAAAGAAAAUCUGGGCCAGGCAGGCAUCAAAAGAAAUAGUCUUGCGCUCAACCAGAAAGUCUGUAAUCAUUUUAAGGGUG,0.48
8,GUUAACGGUCAUAGGCCAUGGGAACUAGGAGCGCCAUUUCGCUGCCAGUGAAGAAAUGAACAAAGAAAAUCUGGGCCAGGCAGGCAUCAAAAGAAAUAGUCUUGCGCUCGACCAGAAAGUCUGUAAUCAUUUUAAGGGUA,0.15
9,GUUAACGGUCAUAGGCCAUGGGAGCCAGGAGCACCAUUUCGCUGCCAGUGAAGAAAUGAACAAAGAAAAUCUGGGCCAGGCAGGCAUCAAAAGAAAUAGUCUUGCGCUCAACCAGAAAGUCUGUAAUCAUUUUAAGGGUA,0.84
10,GUUAACGGUCAUAGGCCAUGGGAACUAGGAGCCCCAUUUCGCUGCCAGAGAAGAAAUGAACAAAGAAGAUCUGGGCCAGGCAGGCAUCAAAAGAAAUAGUCUUGCGCUCAACCAGAAAGUCUGUAAUCAUUUUAAGGGUA,1.27
11,GUUAACGGUCAUAGGCCAUGGGAGCUAGGAGCACCAUUCCGCUGCCAGUGAAGAAAUGAACAAAGAAAAUCUGGGCCAGGCAGGCAUCAAAAGAAAUAGACUUGCGCUCAACCAGAAAGUCUGUAAUCAUUUUAAGGGUA,0.9
12,GUUAACGGUCAUAGGCCAUGGGAACUAGGAGCUCCAUUUCGCUGCCAGUGAAGAAAUGAACAAAGAAAAUCUGGGUCAGGCAGGCAUCAAAAGAAAUAGUCUCGCGCUCAACCAGAAAGUCUGUAAUCAUUUUAGGGGUA,0.07
13,GUUAACGGUCAUAGGCCAUGGGAACUAGGAGCUCCAUUUCGCUGCCAGUGAAGAAAUGAACAAAGAAAAUCUGGGCCAGGCAGGCAUCAAAAGAAAUAGUCUUGCGCUCAACCAGAAAGUCUGUAGUCAUUUUAAGGGUA,0.44
14,GUUAACGGUCAUAGGCCAUGGGAACUAGGAGCACCGUUUCGCUGCCAGUGAAGAAGUGAACGAAGAAAAUCUGGGCCAGGCAGGCAUCUAAAGAAAUAGUCUUGCGCUCAACCAGAAAGUCUGUAAUCAUUUUAAGGGUA,1.36
15,GUUAACGGUCAUAGGCCAUGGGAACUAGGAGCGCCAUUUCGCUGCCAGUGAAGAAAUGAACAGAGAACAUCUGGGCCAGGCAGGCAUCGUAAGAAAUAGUCUUGCGCUCAACCAGAAAGUCUGUAAUCAUUUUAAGGGUG,0.98
16,GUUAACGGUCAUAGGCCAUGGGAACUAGGAGCACCAUUUCGCUGCCGGUGAAGAAAUGAACAAAGAAAAUCUGGGCCAGGCAGGCAUCAAAAGAAAUAGUCUUGCGCUCAGCCAGAAAGUCUGUAAUCAUUUUAAGGGUA,0.06
17,GUUAACGGUCAUAGGCCAUGGGAGCUAGGAGCACCAUUUCGCUGCCAGCGAAGAAAUGAACAAAGAAAAUCUGGGCCUGGCAGGCAUCAAAAGAAAUAGUCUUGCGCUCAACCGGAGAGUCUGUAAUCAUUUUAAGGGUA,0.03
18,GUUAACGGUCAUAGGCCAUGGGAUCUAGGAGCACCAUUUCGCUGCCUGUGAAGGAAUGAACAAAGAAAAUCUGGGCCAGGCAGGCAUCAAAGGAAGUAGUCUUGCGCUCAACCAGAUAGUCUGUAAUCAUUUUAAGGGUA,0.47
19,GUUAACGGUCAUAGGCCAUGGGAACUAGGUGCACCAUUUCGCUGCCAGUGAAGAAAUGAACAAAGGAAAUCUGGGCCAGGCAGGCAUCAAAAGAAAUAGUCUUGCGCUCAACCAGAAAGUCUGUAAUCAUUUUAAGGGUA,1.7
20,GUUAACGGUCAUAGGCCAUGGGAACUAGGGGCACCAUCUCGCUGCCAGUGAAGAAAUGAACAAAGAAAAUCUGGGCCAGGCAGGCAUCAAAAGAAAUAGUCUUGCGCUCAUCCAGGAAGUUUGUUAUCAUUUUAUGGGUA,0.16
